Laboratory results as given in article PMC8873214, “RIOX1-demethylated cGAS regulates ionizing radiation-elicited DNA repair” (Bone Research, 2022).
Changes are numbered by the printed parent chain. Names may count otherwise. These are yes or no findings as the source states them, for the method shown. Binding seen in cells or lysates may run through a third protein. Some binding calls cover weakened binding; strength is not graded here. For some assays here: Sequences can lack the tags named with a protein. Each block holds one molecule with its values, some of them ahead of it.

Sequences of proteins named here, by UniProt entry; tags and fusion partners are left off. A change or cut given only in a name is not applied to a line headed by its entry.
UniProt Q8C6L5: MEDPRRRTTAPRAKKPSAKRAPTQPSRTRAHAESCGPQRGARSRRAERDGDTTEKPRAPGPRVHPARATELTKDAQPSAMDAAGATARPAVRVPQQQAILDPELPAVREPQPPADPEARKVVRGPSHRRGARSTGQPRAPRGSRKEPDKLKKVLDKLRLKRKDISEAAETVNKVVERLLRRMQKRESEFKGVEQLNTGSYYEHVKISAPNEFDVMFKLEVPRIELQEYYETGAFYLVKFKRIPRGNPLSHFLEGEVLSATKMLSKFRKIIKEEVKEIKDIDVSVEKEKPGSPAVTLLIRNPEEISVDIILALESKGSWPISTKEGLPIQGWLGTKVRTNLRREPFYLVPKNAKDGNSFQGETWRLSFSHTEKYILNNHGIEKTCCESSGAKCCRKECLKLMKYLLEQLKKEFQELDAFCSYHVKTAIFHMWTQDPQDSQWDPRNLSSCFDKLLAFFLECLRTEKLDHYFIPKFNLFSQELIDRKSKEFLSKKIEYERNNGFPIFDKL
UniProt P11103: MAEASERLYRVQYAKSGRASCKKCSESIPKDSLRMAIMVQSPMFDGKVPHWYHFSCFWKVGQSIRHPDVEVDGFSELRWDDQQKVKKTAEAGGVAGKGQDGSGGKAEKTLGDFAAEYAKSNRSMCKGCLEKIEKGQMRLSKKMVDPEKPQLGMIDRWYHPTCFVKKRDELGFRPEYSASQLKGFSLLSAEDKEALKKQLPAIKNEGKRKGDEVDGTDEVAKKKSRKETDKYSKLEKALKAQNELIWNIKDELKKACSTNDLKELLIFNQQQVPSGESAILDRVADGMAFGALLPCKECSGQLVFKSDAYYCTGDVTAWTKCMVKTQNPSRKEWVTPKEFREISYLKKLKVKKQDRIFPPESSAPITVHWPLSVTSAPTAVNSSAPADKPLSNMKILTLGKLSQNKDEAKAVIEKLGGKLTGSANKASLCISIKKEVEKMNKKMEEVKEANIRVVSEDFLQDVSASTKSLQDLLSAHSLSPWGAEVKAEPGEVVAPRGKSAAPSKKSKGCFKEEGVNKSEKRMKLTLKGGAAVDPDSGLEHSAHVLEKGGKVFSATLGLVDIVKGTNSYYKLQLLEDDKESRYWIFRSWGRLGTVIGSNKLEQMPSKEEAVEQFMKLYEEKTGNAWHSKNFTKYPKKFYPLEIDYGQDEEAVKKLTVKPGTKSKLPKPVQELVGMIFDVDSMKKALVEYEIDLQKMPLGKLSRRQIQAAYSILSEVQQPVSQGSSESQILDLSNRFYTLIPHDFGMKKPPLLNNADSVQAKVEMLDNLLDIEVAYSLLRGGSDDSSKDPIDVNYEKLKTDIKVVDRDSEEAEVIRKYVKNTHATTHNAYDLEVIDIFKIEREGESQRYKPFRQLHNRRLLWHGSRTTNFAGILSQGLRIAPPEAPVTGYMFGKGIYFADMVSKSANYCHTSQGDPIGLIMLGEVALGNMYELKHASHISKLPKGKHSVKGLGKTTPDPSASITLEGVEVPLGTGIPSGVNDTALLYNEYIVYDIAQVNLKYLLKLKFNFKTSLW
UniProt Q8CD15: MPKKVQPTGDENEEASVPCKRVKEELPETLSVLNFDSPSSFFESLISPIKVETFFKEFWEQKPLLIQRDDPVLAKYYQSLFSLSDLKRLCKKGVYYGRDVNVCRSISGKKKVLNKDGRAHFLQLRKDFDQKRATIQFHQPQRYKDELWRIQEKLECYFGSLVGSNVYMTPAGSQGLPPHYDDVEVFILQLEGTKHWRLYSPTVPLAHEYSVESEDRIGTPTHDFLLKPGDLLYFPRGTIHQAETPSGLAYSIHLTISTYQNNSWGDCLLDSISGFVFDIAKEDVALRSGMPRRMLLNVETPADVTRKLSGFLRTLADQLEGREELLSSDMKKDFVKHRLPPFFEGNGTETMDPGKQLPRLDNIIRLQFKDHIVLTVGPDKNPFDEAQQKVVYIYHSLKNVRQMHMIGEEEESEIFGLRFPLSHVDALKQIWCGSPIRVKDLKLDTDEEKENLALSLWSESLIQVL

Legend:
[1] = target: T1, His-Timeless (mouse) (UniProt Q9R1X4); assay: pull-down; Ni-NTA pulldown of His-Timeless from 32D Cl3 cells treated with 10 Gy ionizing radiation, with or without Riox1 shRNA, Flag-Cgas WT or K491R, HA-Sgf29 WT or mutant; precipitates treated with excess PARG before immunoblot
T1 sequence: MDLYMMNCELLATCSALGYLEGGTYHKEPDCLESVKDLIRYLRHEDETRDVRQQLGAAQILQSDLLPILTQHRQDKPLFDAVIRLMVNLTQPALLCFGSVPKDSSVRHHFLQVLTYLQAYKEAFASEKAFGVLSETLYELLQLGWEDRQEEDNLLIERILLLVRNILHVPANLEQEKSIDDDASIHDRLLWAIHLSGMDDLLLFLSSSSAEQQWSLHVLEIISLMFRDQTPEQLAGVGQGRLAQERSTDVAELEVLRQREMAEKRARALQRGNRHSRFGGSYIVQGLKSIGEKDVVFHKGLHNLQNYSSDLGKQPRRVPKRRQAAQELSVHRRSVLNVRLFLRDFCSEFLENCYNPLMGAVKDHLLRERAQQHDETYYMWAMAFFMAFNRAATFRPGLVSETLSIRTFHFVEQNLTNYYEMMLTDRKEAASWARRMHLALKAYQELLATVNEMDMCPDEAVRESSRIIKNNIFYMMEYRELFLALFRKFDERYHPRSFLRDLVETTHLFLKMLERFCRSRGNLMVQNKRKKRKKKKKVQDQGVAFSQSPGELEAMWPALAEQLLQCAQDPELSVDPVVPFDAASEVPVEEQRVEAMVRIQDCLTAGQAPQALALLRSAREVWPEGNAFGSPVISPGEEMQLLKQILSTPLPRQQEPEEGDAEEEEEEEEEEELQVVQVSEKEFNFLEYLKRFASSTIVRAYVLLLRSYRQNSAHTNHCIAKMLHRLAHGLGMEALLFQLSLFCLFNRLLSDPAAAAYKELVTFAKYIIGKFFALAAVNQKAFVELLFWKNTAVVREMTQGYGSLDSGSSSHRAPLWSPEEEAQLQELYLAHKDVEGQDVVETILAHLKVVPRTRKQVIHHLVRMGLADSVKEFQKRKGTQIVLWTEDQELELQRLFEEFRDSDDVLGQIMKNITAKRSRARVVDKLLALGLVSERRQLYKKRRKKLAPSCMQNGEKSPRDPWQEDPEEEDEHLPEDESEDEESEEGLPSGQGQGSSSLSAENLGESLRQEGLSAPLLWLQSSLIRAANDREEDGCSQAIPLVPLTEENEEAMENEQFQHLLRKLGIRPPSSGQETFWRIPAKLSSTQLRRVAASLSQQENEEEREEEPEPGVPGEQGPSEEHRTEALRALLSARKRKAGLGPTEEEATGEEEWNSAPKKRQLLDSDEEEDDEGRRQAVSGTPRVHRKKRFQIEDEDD

[2] = target: WT Flag-cGAS (mouse) (UniProt Q8C6L5); assay: co-IP; immunoprecipitation of Flag-cGAS from 32D Cl3 cells treated with 10 Gy ionizing radiation, with or without Riox1 shRNA, Sgf29 shRNA and HA-Sgf29 WT or mutant; immunoprecipitates treated with excess PARG before immunoblot
[3] = target: Flag-cGAS K491R (mouse) (UniProt Q8C6L5); assay: as above
[4] = target: cyclic GMP-AMP synthase (cGAS), endogenous (mouse (endogenous in 32D Cl3 and FDC-P1)) (UniProt Q8C6L5); assay: co-IP; endogenous proteins, 32D Cl3 and FDC-P1 cell lysates; immunoblot; for SGF29 cells with or without Riox1 shRNAs
[5] = target: WT Flag-cGAS (mouse) (UniProt Q8C6L5); assay: co-IP; immunoprecipitation from 32D Cl3 cells transduced with Riox1 shRNA, Flag-Cgas WT or K491R, HA-Sgf29 WT or D194A/D196A; immunoblot
[6] = target: Flag-cGAS K491R (mouse) (UniProt Q8C6L5); assay: as above

binding [1]: binds
binding [2]: binds
binding [3]: binds
Molecule: poly(ADP-ribose) polymerase 1 (PARP1), endogenous (from UniProt P11103 1-1013) (enzyme)

binding [4]: no binding
Molecule: RIOX2, endogenous (from UniProt Q8CD15 1-465)

binding [4]: binds
binding [5]: binds
binding [6]: no binding
B1: SAGA complex-associated factor 29 (SGF29), endogenous (protein, UniProt Q9DA08 1-293)
chain: MALVSADSRIAELLTELHQLIKQTQEERSRSEHNLVNIQKTHERMQTENKISPYYRTKLRGLYTTAKTDAEAECNILRKALDKIAEIKSLLEERRIAAKIAGLYNDSEPPRKTMRRGVLMTLLQQSAMTLPLWIGKPGDKPPPLCGAIPASGDYVAKPGDKVAARVKAVEGDEQWILAEVVSYSHATNKYEVDDIDEEGKERHTLSRRRIIPLPQWKANPETDPEALFQKEQLVLALYPQTTCFYRALIHTPPQRPQDDYSVLFEDTSYADGYSPPLNVAQRYVVACKEPKKK

binding [5]: no binding
B2: HA-SGF29 D194A/D196A (protein, UniProt Q9DA08 1-293)
chain: B1 chain with D194A, D196A

binding [5]: binds
B3: WT HA-SGF29 (protein, UniProt Q9DA08 1-293)
chain: B1 chain

binding [4]: binds
B4: ribosomal oxygenase 1 (RIOX1), endogenous (protein, UniProt Q9JJF3 1-603)
chain: MDELPNGNGAALLKRGRGRRRRHPQSQPRGASVLALPLRPRKIRRHRKSAAASRVAALRARALRSEDSDSKVAVASVRGKRKRPAELLEASRSAEPRPVSARPRSASATLPSRVEGWAALSRNLGTAAPPPPGSHADEPGRPRASPLQQVLTELNGIPSSRRRAARLFEWLLAPLPPDHFYRRLWEREAVLVRRQDRSYYEGLFSTADLDSMLRYEDVQFGQHLDAARYVDGRRETLNPPGRALPAAAWSLYRAGCSLRLLCPQAFSPTVWQFLAVLQEQFGSMAGSNVYLTPPDSQGFAPHYDDIEAFVLQLEGRKLWRVYRPRDPSEELALTSSPNFSQEDLGEPVLQTVLEPGDLLYFPRGFIHQAECQDGVHSLHLTLSTYQRNTWGDFLEAVLPLAVQAAIEENVEFRRGLPRDFMDYMGAQHSDSKDPRRTAFMEKVRVLVARLGHFAPVDAVADQRAKDFIHDSLPPVLTDRERALSVHGLPVRWEAGEPVNVGAQLTTETQVHMLQDGVARLVGEGGRLFLYHTVENSRVYHLEEPKCLEIHPQQADAMELLLRSYPEFVRVGDLPCDSVEDQLSLATMLYDKGLLLTKTPLVPS

binding [4]: binds
B5: SET domain-containing lysine methyltransferase 7 (SET7), endogenous (enzyme, UniProt Q8VHL1 1-366)
chain: MDSDDEVVEEAVEGHLDDDGLPHGFCTVTYSSTDRFEGNFVHGEKNGRGKFFFFDGSTLEGYYVDDALQGQGVYTYEDGGVLQGTYVDGELNGPAQEYDSDGRLIFKGQYKDNNRHGVCWIHYPDGGSLVGEVNEDGEMTGEKIAYVYPDQRTALYGKFIDGEMLEGKLATLMATEEGRPHFEVTSGSSVYHFDKSTSSCISSDALLPDPYESERVYVADSLISSAGEGLFSKVAVGPNTVMSFYNGVRITHQEVDSRDWALNGNTLSLDEETVIDVPEPYNHVSKYCASLGHKANHSFTPNCVYDLFVHPRFGPIKCIRTLRAVEAEEELTVAYGYDHSPPGKSGPEAPEWYQVELKAFQATQQK
